Test results as given in PubChem BioAssay AID1347073 (National Center for Advancing Translational Sciences (NCATS), 2019).
Hit rate of the full screen: of about 45,000 compounds, about 200 (0.44%) were called active. Inconclusive results (about 7%) are left out. The call rests on the fitted dose curve; in most records, active means well fitted activation curve with a large enough effect; inconclusive means small, poorly fitted or top-dose-only effect; inactive means no such curve, though single readings can be large or run the other way. This is one part of the list.

Assay: qHTS of TDP-43 Inhibitors: NCGC Sytravon Library Screen; further: 0% is about no effect; nearly all actives have a fitted effect of over 55% in size
Conditions: yeast TDP-43 toxicity rescue, BacTiter-Glo growth, 24 h; series mostly up to 46.1 µM; growth rescue (activation): at the top concentration
How it was run: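 TDP-43-expressing yeast, pregrown in raffinose, seeded at OD600 0.02 in galactose medium with compound for 24 hr at 30 deg C. Growth read by BacTiter-Glo luminescence, so rescue of toxicity appears as activation.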

| Compound | growth rescue (activation) |
| --- | --- |
| CCOc1ccc(N(CC(=O)NC2CCCCC2)C(=O)CCCC(=O)Nc2ccccn2)cc1 | inactive: -16.8% |
| COc1ccc(N(CC2CO2)S(=O)(=O)c2ccccc2)cc1 (stereo unspecified) | inactive: -7.88% |
| COc1cccc(NC(=O)CN(C)CC(=O)NCc2ccc(F)cc2)c1 | inactive: 6.36% |
| Cn1c(CC(=O)Nc2ccc(F)cc2)nnc1SCC(=O)Nc1nncs1 | inactive: -0.6% |
| CCOc1ccccc1/C=N\Nc1cnn(Cc2ccccc2)c(=O)c1Cl | inactive: 12.6% |
| CC(C)Sc1snnc1-c1ccccc1 | inactive: -21.9% |
| N=C1C(c2nc3ccccc3s2)=C(O)CN1NC(=O)c1ccc([N+](=O)[O-])cc1 | inactive: -16.8% |
| CCc1nc2nc(C)c(NS(=O)(=O)c3ccc(Cl)cc3)c(=O)n2[nH]1 | inactive: 6.12% |
| COc1ccc(CN(CC2CCC(C(=O)O)CC2)C(=S)Nc2ccccc2OC)cc1 (stereo unspecified) | inactive: 1.03% |
| N#Cc1ccc(CSc2nnc(Cc3cccs3)n2Cc2ccco2)cc1 | inactive: 11.5% |
| Cc1ccc(CNC(=O)Cc2ccc(-n3cccc3)cc2)cc1 | inactive: 13.4% |
| Cc1cc(C)nc(N/N=C/c2ccc3c(c2)OCCO3)n1 | inactive: 7% |
| Cc1ccc(-c2csc(C(C)(O)c3cccc(F)c3)n2)cc1C (stereo unspecified) | inactive: -42.9% |
| CCC(=O)N1CCN(CCN=CC2=C(O)CC(c3ccc(OC)cc3)CC2=O)CC1 (stereo unspecified) | inactive: 22.8% |
| O=C(Cn1nnc(-c2cccc(C(F)(F)F)c2)n1)NC(=O)NCc1ccco1 | inactive: -12.5% |
| CNC(=S)N/N=C/c1ccccc1OCC(=O)O | inactive: -0.0345% |
| CCOCCCNC(=S)Nc1cc(C)cc(C)c1 | inactive: 24.2% |
| COc1ccc(C(=O)CSc2n[nH]c(-c3ccncc3)n2)cc1[N+](=O)[O-] | inactive: -10.1% |
| COC(=O)c1sccc1NC(=O)COc1cccc(C)c1 | inactive: 18.8% |
| COc1ccc(OCc2cc(C(=O)NC(C)Cn3cncn3)no2)c(Cl)c1 (stereo unspecified) | inactive: -10.8% |
| COc1cc2c(cc1OC)C(c1cc3ccc(C)cc3[nH]c1=O)N(C(=O)c1ccco1)CC2 (stereo unspecified) | inactive: 13.9% |
| O=C(CSc1nc2ccccc2[nH]1)N/N=C/C=C/c1ccccc1[N+](=O)[O-] | inactive: -12.9% |

| Compound | growth rescue (activation) |
| --- | --- |
| COc1ccc(NC(=O)C2CCN(C(=O)Nc3ccc(C)cc3)CC2)cc1OC | inactive: 8.75% |
| O=c1cnn(-c2ccc(Cl)cc2Cl)c(-c2ccccc2)c1 | inactive: -1.57% |
| Cc1c(Cl)cccc1NC(=S)N1CCC(N(C)CC2CCCO2)CC1 (stereo unspecified) | inactive: 12.4% |
| COc1ccc(OC)c(CC(=O)NC(c2ccccc2)c2ccccc2)c1 | inactive: -2.74% |
| COCC[N+]1(C)CCCCC1 | inactive: 0.136% |
| Cc1cc(/C=C(\C#N)C(=O)O)c(C)n1CCC(C)C | inactive: 0.37% |
| COc1ccc(N(CC(=O)NCc2cccnc2)S(=O)(=O)c2ccc(C)c([N+](=O)[O-])c2)cc1 | inactive: 0.737% |
| Nn1cnc2scc(-c3ccco3)c2c1=O | inactive: 0.975% |
| CC(C)Cc1ccc(-c2ccc3nccn3c2)cc1 | inactive: 18.5% |
| O=C(NCC1CCCO1)c1cc(S(=O)(=O)N2CCOCC2)ccc1Cl (stereo unspecified) | inactive: 11.2% |
| CCOc1ccccc1OCCC(=O)Nc1ccc(F)c(Cl)c1 | inactive: 7.31% |
| CC(C)[C@@H](NC(=O)C1CCC(CNC(=O)[C@H](Cc2ccccc2)NC(=O)OC(C)(C)C)CC1)C(=O)O (stereo partly specified) | inactive: 1.35% |
| CN(c1ccc(OCc2ccc([N+](=O)[O-])cc2)cc1)S(=O)(=O)c1ccccc1 | inactive: 13.9% |
| CC(=O)NCCNc1nc2cc(-c3ccc(C(=O)N4CCN(C)CC4)cc3)sc2c(=O)n1C | inactive: 12.8% |
| Brc1ccc(/C=N/n2cnnc2)s1 | inactive: -4.93% |
| COc1ccc(CCNC2CC(=O)N(N(C)C)C2=O)cc1OC (stereo unspecified) | inactive: -0.898% |
| OCC1(Cc2ccccc2C(F)(F)F)CCN(Cc2cccc3cnccc23)CC1 | inactive: -10.3% |
| Cc1c(C#N)c(O)[nH]c(=O)c1N=Nc1ccc(S(N)(=O)=O)cc1 | inactive: -0.904% |
| O=C(CNC(=O)c1cccc(F)c1)N/N=C/C=C/c1ccccc1 | inactive: -0.361% |
| Cc1cc(NS(=O)(=O)c2ccc(NC(=O)c3ccc([N+](=O)[O-])c(Cl)c3)cc2)no1 | inactive: -19.2% |
| Cc1ccc(-c2nnc(Nc3ccc(C(N)=O)cc3)c3ccccc23)cc1S(=O)(=O)NCC1CCCO1 (stereo unspecified) | inactive: -3.28% |
| COc1cc(CC(=O)Nc2cc(S(C)(=O)=O)ccc2Cl)cc(OC)c1OC | inactive: -4.52% |

| Compound | growth rescue (activation) |
| --- | --- |
| Cc1cccc(C)c1N1C(=O)[C@@H]2C(c3ccccc3Cl)=NO[C@@H]2C1=O | inactive: 4.18% |
| CCOC(=O)N1CCC(N(CCN(C)C)C(=S)Nc2cccc(Cl)c2C)CC1 | inactive: 12.1% |
| CC(NC(=O)C1CCN(S(=O)(=O)N2CCC3(CC2)OCCO3)CC1)c1ccccc1 (stereo unspecified) | inactive: -12% |
| CCCCn1c(N)c(N(CC(C)C)C(=O)COc2cc(C)ccc2Cl)c(=O)[nH]c1=O | inactive: 19.2% |
| CCOc1ccc(S(=O)(=O)N(CC(=O)NCC2CCCO2)c2ccc(F)cc2)cc1 (stereo unspecified) | inactive: -12.8% |
| CCn1c2ccccc2c2cc(NC(=O)CNC)ccc21 | inactive: -1.66% |
| CCCN1CC(=O)N2C(c3ccccc3)c3[nH]c4ccccc4c3C[C@H]2C1=O (stereo partly specified) | inactive: -8.6% |
| c1ccc2sc(Sc3ncnc4sccc34)nc2c1 | inactive: 30.1% |
| CC(C)(C)NC(=O)Cn1c(=O)n(CC(=O)NC(C)(C)C)c2ccccc21 | inactive: 0.79% |
| CCN(c1ccccc1)S(=O)(=O)c1ccc(C(=O)NCCCn2ccnc2)cc1 | inactive: -7.54% |
| CN(NC(=O)CN1C(=O)c2ccccc2C1=O)C1=NS(=O)(=O)c2ccccc21 | inactive: -2.36% |
| COc1ccc(-n2nc(C(=O)NCC(=O)N3CCCCC3)c3ccccc3c2=O)c(OC)c1 | inactive: -1.43% |
| COc1ccc(NS(=O)(=O)c2cc(C(=O)N3CCN(C(C)=O)CC3)ccc2Cl)cc1 | inactive: -11.5% |
| Cc1ccccc1C(=O)Nc1ccnn1C1CCN(Cc2cnn(C)c2)CC1 | inactive: -0.116% |
| COc1ccc(/C=N/Nc2cc(N(C)C)nc(N(C)C)n2)cc1 | inactive: -0.143% |
| O=C(CNS(=O)(=O)c1cccs1)NCc1ccccc1 | inactive: -17.6% |
| CS(=O)(=O)c1cccc(C(=O)N(CCc2ccccc2)Cc2cccs2)c1 | inactive: 4.71% |
| CC(C)CNC(=O)C1CC(=O)OC12CCCCC2 (stereo unspecified) | inactive: -0.275% |
| Cc1cc(-c2n[nH]c(=S)n2/N=C/C=C/c2ccccc2)n[nH]1 | inactive: 18.1% |
| Cc1cc(C)c(NC(=O)CSc2nnc(CN3CCOCC3)n2C)c(C)c1 | inactive: -3.38% |
| COc1ccc(-c2c(C)n([O-])c3c([n+]2=O)CCCCC3)cc1 | inactive: 14.1% |
| CCn1cc(C(=O)NC(C)CCc2ccccc2)c(=O)c2cc(S(=O)(=O)N(C)C)ccc21 (stereo unspecified) | inactive: -15.5% |

| Compound | growth rescue (activation) |
| --- | --- |
| CN(C)C(=O)C(OC(=O)c1ccc2ccccc2n1)c1ccccc1 (stereo unspecified) | inactive: -4.36% |
| Cc1c(C(=O)NCc2ccc(Cl)cc2)oc2ccc3c(c12)C(=O)CC(C)(C)O3 | inactive: 16.4% |
| O=C(N/N=C/c1ccc2c(c1)OCO2)C(=O)Nc1cccc(Cl)c1 | inactive: 2.54% |
| O=C(c1ccccc1-c1ccccc1)N1CCCCC1 | inactive: 9.32% |
| Nc1cc(=O)[nH]n1C1CCCCC1 | inactive: -0.785% |
| COc1cc(C(=O)N2CCCCC2c2cc(C(=O)Nc3ccccc3Cl)no2)cc(OC)c1C (stereo unspecified) | inactive: 7.88% |
| Cc1ccc(NCc2n[nH]c(=S)n2-c2ccccc2)cc1 | inactive: 3.07% |
| CCN(CC)S(=O)(=O)c1ccc(C)c(NC(=O)CN2C(=O)NC3(CCCC3)C2=O)c1 | inactive: 2.16% |
| Cc1nc(N2CCN(Cc3ccc(Cl)cc3)CC2)c2oc3ccccc3c2n1 | inactive: 3.67% |
| O=C(NC1CCCCC1)c1c2c(nc3ccccc13)CCC2 | inactive: 3.05% |
| CCOC(=O)c1cc(C#N)c(SCC(=O)OC)[nH]c1=O | inactive: -2.88% |
| COCC1CCCN(C(=O)c2ccc(OC3CCN(Cc4ccccn4)CC3)cc2)C1 (stereo unspecified) | inactive: -10.9% |
| O=C(Nc1ccc(Br)cc1F)c1ccc2c(c1)OCCO2 | inactive: 12.2% |
| CCc1nc(SCC(=O)Nc2ccccc2Cl)n[nH]1 | inactive: 12.1% |
| CCOC(=O)N1CCN(CC(O)COc2cc(C)cc(C)c2)CC1 (stereo unspecified) | inactive: -9.34% |
| O=C(Nc1ccc(Cl)cc1)C1CCCN1C(=O)NCc1ccccc1 (stereo unspecified) | inactive: -2.15% |
| CC(C)(C)c1ccc(-c2n[nH]c(=S)n2CCCN2CCOCC2)cc1 | inactive: 10.8% |
| O=C(CCNC(=O)c1ccco1)NCCc1c[nH]c2ccccc12 | inactive: 20.7% |
| Cc1ccc(N2C(=O)C3CCCN3C2=S)cc1 (stereo unspecified) | inactive: -1.46% |
| N#C/C(=C\c1ccc(OCc2ccccc2)cc1)C(=O)Nc1ccc(C(=O)O)cc1 | inactive: 19.7% |
| Cc1ccccc1C(=O)NCC(=O)Nc1ccccc1C(F)(F)F | inactive: -0.33% |
| COc1cc(NC(=O)CN2C(=O)NC(c3ccccc3)(c3ccccc3)C2=O)c(C)cc1[N+](=O)[O-] | inactive: -24.3% |

| Compound | growth rescue (activation) |
| --- | --- |
| COc1cc2c(=O)n(CCC(=O)NCC3CCCO3)c(=O)n(CC(=O)Nc3ccccc3C)c2cc1OC (stereo unspecified) | inactive: 8.55% |
| C=CCn1c(=O)c2c(nc3n2CCCN3CCc2ccc(OC)c(OC)c2)n(C)c1=O | inactive: 7.46% |
| COc1cccc2c1cc1c(=O)n(CC(=O)N3CCN(c4cccc(C)c4C)CC3)nc(C)n12 | inactive: -10.9% |
| O=[N+]([O-])c1ccc(Cl)c2cccnc12 | inactive: 9.54% |
| Cc1ccc(CNC(=O)C2CCN(S(=O)(=O)N3CCCCC3)CC2)cc1 | inactive: 15.1% |
| COc1cc(/C=N/n2c(=S)[nH]nc(C)c2=O)cc([N+](=O)[O-])c1O | inactive: -2.16% |
| CCOc1ccc(NC(=S)NCc2ccco2)cc1 | inactive: 21% |
| Cc1ccc(NC(=S)NCC2CCN(C(C)c3ccccc3)C2)cc1 (stereo unspecified) | inactive: -5.92% |
| CCCCCC(O)(c1ccc(OC)cc1)C(CN1CCOCC1)c1ccccc1 (stereo unspecified) | inactive: 6.6% |
| CC(=O)c1cccc(NC(=O)C2CC(=O)N(C3CCCC3)C2)c1 (stereo unspecified) | inactive: 18.2% |
| CC1CCN(S(=O)(=O)c2ccc3c(c2)CCN3C(=O)Nc2ccccc2Br)CC1 | inactive: -9.34% |
| COc1ccc(CNC(=O)CSc2nc3ccc(N)cc3s2)cc1 | inactive: 30.8% |
| CC(=O)NC(Cc1ccccc1F)C(=O)NC1CCN(c2ncccc2[N+](=O)[O-])CC1 (stereo unspecified) | inactive: 1.19% |
| CSc1ccc(Cl)c(C(=O)NNC(=O)c2cccs2)c1 | inactive: 29.9% |
| COc1ccc(Cn2c(=O)[nH]c3cc(C(=O)NCCCOC(C)C)ccc3c2=O)cc1 | inactive: -0.599% |
| CN(C)CCNC(=O)c1sc2nc(-c3ccccc3)cc(C(F)(F)F)c2c1N | inactive: 6.32% |
| O=C(NNC(=O)c1cccs1)c1ccc(S(=O)(=O)N2CCCCC2)cc1 | inactive: 13.5% |
| C/C(CC(=O)Nc1ccccc1C#N)=N\NC(=O)c1ccncc1 | inactive: -4.23% |
